According to PubChem BioAssay AID686978 (National Center for Advancing Translational Sciences (NCATS), 2013):
The whole screen tested about 420,000 compounds, of which about 64,000 (15%) were called active. Inconclusive means that the source gave no clear call. Such entries were picked first, then a sample of the others. The call rests on the fitted dose curve; in most records, active means well fitted inhibition curve with a large enough effect; inconclusive means small, poorly fitted or top-dose-only effect; inactive means flat fitted curve, though single readings scatter. Potencies of inconclusive entries are left out as doubtful fits.

assay: qHTS for Inhibitors of human tyrosyl-DNA phosphodiesterase 1 (TDP1): qHTS in cells in absence of CPT; conditions: DT40 Tdp1-/- hTDP1 cells, no CPT, ATP luminescence, 48 h; activity change, negative = growth inhibition: at 46.2 µM (top of the series) unless noted; further: nearly all actives have a fitted effect of over 55% in size
In short: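 Luminescent ATP content (CellTiter-Glo) served as the growth readout. Knockout chicken DT40 cells expressing human TDP1 were exposed to compounds without camptothecin for a minimum 48 hr at 37 °C.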
On the % scale 0 is the no-effect control and ±100 the full control effect; potency means the concentration at half of the fitted maximal effect; tags describe the fitted curve by direction and shape.

| SMILES | Potency | activity change, negative = growth inhibition |
| --- | --- | --- |
| N#Cc1ccc(C(=O)Nc2cccc(S(=O)(=O)NC3=NCCC3)c2)cc1 | inactive |  |
| CCCN(C(=O)Cn1cnc2sc(C)c(S(=O)(=O)N3CCN(c4ncccn4)CC3)c2c1=O)c1cccc(C)c1 | active: 14.6 µM |  |
| CN1C(=O)C(CC(=O)NC2CCCCC2)SC1=Nc1ccccc1 (stereo unspecified) | inconclusive [inhibitor, single point] |  |
| Cc1cc(C)cc(OCC(=O)N2CCc3ccccc3C2)c1 | inactive |  |
| CCOC(=O)c1csc(N/N=C2\CCc3ccccc32)n1 | inconclusive [inhibitor, single point] |  |
| CCOC(=O)C1C(=O)CC(C)(O)C(C(=O)OCC)C1c1ccc(N(CC)CC)cc1 (stereo unspecified) | inconclusive [inhibitor, partial curve, poor fit] |  |
| CC1CCCCN1S(=O)(=O)c1ccc(C(=O)Nc2nnc(-c3ccco3)o2)cc1 (stereo unspecified) | active: 25.9 µM |  |
| CN(C)S(=O)(=O)c1ccc(N2CCCC2)c(C(=O)NCC2COc3ccccc3O2)c1 (stereo unspecified) | inconclusive [inhibitor, partial curve, poor fit] |  |
| Cc1ccccc1NC(=O)CCc1c(C)nc2c(c1C)c(=O)n(C)c(=O)n2C | inconclusive [inhibitor, full curve, poor fit] |  |
| O=C(Nc1ccc(N2CCCCC2)c(Cl)c1)c1ccc(N2CCOCC2)c([N+](=O)[O-])c1 | active: 12.6 µM |  |
| O=C(CSc1cc(Cl)ccc1Cl)NC1CCCc2ccccc21 (stereo unspecified) | inconclusive [inhibitor, single point] |  |
| Cc1ccc(NC(C)C(=O)N/N=C/c2c[nH]c3ccccc23)cc1 (stereo unspecified) |  | inconclusive: -31.4% [inhibitor] |
| CC(C)=CCn1c2ccc(NC(=O)Nc3cccnc3)cc2c(=O)n1C | inconclusive [inhibitor, single point] |  |
| CC(C)(C)OC(=O)C[C@H]1C/C=C\C[C@@H](CC(=O)N(CCO)Cc2ccccc2)C(=O)N2CCC[C@H]2COC1=O | inconclusive [inhibitor, single point] |  |
| COc1ccccc1/C=C1\SC(=S)N(CCC(=O)NNC(=O)c2ccccc2O)C1=O | inconclusive [inhibitor, single point] |  |
| O=C(Nc1cccnc1)c1cccc(S(=O)(=O)N2CCc3ccccc32)c1 | inconclusive [inhibitor, single point] |  |
| CCOC(=O)c1c(C)nc2c(c1-c1ccc(OC)c(OC)c1)C(=O)c1ccccc1-2 | inconclusive [inhibitor, partial curve] |  |
| O=C1Nc2ccccc2C1C(C[N+](=O)[O-])c1ccccc1 (stereo unspecified) | inactive |  |
| O=C(O)COc1ccc(/C=N/NC(=O)c2ccc(-c3csc(Nc4ccc(Cl)cc4)n3)cc2)cc1 | inactive |  |
| COc1ccc(C(=O)N2CCc3cc(OC)c(OC)cc3C2c2ccc(OC)c(OC)c2)cc1 (stereo unspecified) | inconclusive [inhibitor, partial curve] |  |
| COC(=O)c1c(-c2ccc(F)cc2)noc1N | inactive |  |
| COc1ccc(-n2c(CCc3ccccc3)n[nH]c2=S)cc1 | inconclusive [inhibitor, single point] |  |
| CCOC(=O)C1CCCN(C(=O)c2ccc3[nH]c4c(c3c2)CC(C)CC4)C1 (stereo unspecified) | inconclusive [inhibitor, partial curve, poor fit] |  |
| Cc1c(-c2ccccc2)nc(N)c(C#N)c1-c1cccs1 | inconclusive [inhibitor, single point] |  |

| SMILES | Potency | activity change, negative = growth inhibition |
| --- | --- | --- |
| O=C(NCc1ccco1)c1cc([N+](=O)[O-])cc([N+](=O)[O-])c1 | inconclusive [inhibitor, single point] |  |
| Cc1ccc(N2CC(C(=O)NCc3cccs3)CC2=O)cc1 (stereo unspecified) | inactive |  |
| CCC1CCc2sc(C(=O)NCc3ccccn3)cc2C1 (stereo unspecified) | active: 10.3 µM |  |
| CC(=O)c1cccc(CN2CCC(CO)(CCOc3ccccc3)CC2)c1 | inactive |  |
| Cc1cccc(CN2C(=O)c3ccccc3S(=O)(=O)c3ccc(C(=O)N4CCCC4)cc32)c1 | inconclusive [inhibitor, single point] |  |
| N#Cc1c(NC(=O)CN2CCOCC2)oc(-c2ccccc2)c1-c1ccccc1 | inactive |  |
| COCC1=C(C(=O)OC)C(c2ccco2)n2ncnc2N1 (stereo unspecified) | inactive |  |
| COc1ccc(C(=O)On2c(-c3ccc(Br)cc3)nc3ccccc3c2=O)cc1 | active: 18.4 µM |  |
| COC(=O)c1sccc1N/N=C(\C)c1ccc(F)c(Cl)c1 | inactive |  |
| O=C(c1cc(COc2ccc(F)cc2F)on1)N1CCCC(c2ccccc2)C1 (stereo unspecified) | inconclusive [inhibitor, single point] |  |
| Cc1cccc(CNc2ncnc3ccc(-c4ccoc4)cc23)c1 | active: 13 µM |  |
| Cn1cccc1C(=O)N1CCC2(CCCN(c3ccccc3)C2)CC1 | inconclusive [inhibitor, single point] |  |
| Cc1ccc(NC(=O)CSc2nc3c([nH]c4ccccc43)c(=O)n2C)cc1 | active: 8.2 µM |  |
| CC(=O)c1sc(NC(=O)C2CC(=O)N(Cc3ccco3)C2)nc1-c1ccccc1 (stereo unspecified) | inactive |  |
| Cc1ccc(S(=O)(=O)c2nnn3c2nc(N2CCCCC2)c2sccc23)cc1 | inactive |  |
| COc1ccccc1N1CCN(C(=O)C2CCN(C(=O)c3ccccc3C)CC2)CC1 | inconclusive [inhibitor, single point] |  |
| Oc1oc(-c2ccc(Br)cc2)nc1/C=N/c1ccccn1 | inactive |  |
| COc1ccc(C(O)c2nc(-c3cccc(NC(C)=O)c3)cs2)cc1 (stereo unspecified) |  | inconclusive: -30.9% [inhibitor] |
| CCOc1ccc(/C=C2\SC(=S)NC2=O)cc1OC | inconclusive [inhibitor, single point] |  |
| O=C(Nc1ccccc1)c1nc[nH]c1C(=O)NCCN(CCNC(=O)c1[nH]cnc1C(=O)Nc1ccccc1)CCNC(=O)c1[nH]cnc1C(=O)Nc1ccccc1 | active: 23.1 µM |  |
| CC(Cc1cccnc1)NC(=O)c1cc(COc2ccc(F)cc2F)on1 (stereo unspecified) | active: 20.6 µM |  |
| CCOC(=O)Cc1csc(NC(=O)/C=C\c2ccccc2Cl)n1 | inconclusive [inhibitor, single point] |  |
| COC(=O)c1sccc1NC(=O)CN(C)NS(=O)(=O)c1ccc([N+](=O)[O-])cc1 | inconclusive [inhibitor, single point] |  |
| CC(=O)C1=C(O)C(=O)N(CCc2c[nH]c3ccccc23)C1c1ccc(C)cc1 (stereo unspecified) | inconclusive [inhibitor, partial curve, poor fit] |  |

| SMILES | Potency | activity change, negative = growth inhibition |
| --- | --- | --- |
| Cc1cccc(Cn2c(-c3cccs3)nc3ccccc32)c1 | inconclusive [inhibitor, single point] |  |
| CCCN1CCc2c(sc(NC(=O)CCS(=O)(=O)c3ccccc3)c2C(N)=O)C1 | inconclusive [inhibitor, single point] |  |
| N#Cc1ccc(OCC(=O)NNC(=S)NC2CCCCC2)cc1 | inactive |  |
| CC(C)=CCC/C(C)=C/Cc1c(O)ccc(C(=O)/C=C/c2ccc(O)cc2)c1O | active: 20.6 µM |  |
| S=C(NCc1ccc(Cl)cc1)Nc1ccccc1Cl | inconclusive [inhibitor, single point] |  |
| CC1=C(C(=O)N(C(C)C)C(C)C)CC(CC(=O)NC(c2ccccc2)c2ccccc2)C(=O)N1Cc1ccc(C(C)(C)C)cc1 (stereo unspecified) | inconclusive [inhibitor, single point] |  |
| CCC(=O)OCCNc1cc(Sc2nc3ccccc3[nH]2)c2nonc2c1[N+](=O)[O-] | active: 2.91 µM |  |
| Cc1cc(C)cc(N(C)S(=O)(=O)c2nnc(NC(=O)COc3ccc(Cl)cc3)s2)c1 | inactive |  |
| Cc1oc(-c2cccs2)nc1CS(=O)CC(=O)NCCc1ccccc1 (stereo unspecified) | inconclusive [inhibitor, single point] |  |
| CSc1nnc(NC(=O)c2nc(S(=O)(=O)Cc3ccc(C)cc3)ncc2Cl)s1 | active: 4.11 µM |  |
| COc1ccc(S(=O)(=O)N2CCCCCC2)cc1N(C)S(=O)(=O)c1ccccc1 | active: 23.1 µM |  |
| CSc1cccc(NC(=O)C2CCN(S(=O)(=O)c3ccc(F)cc3)CC2)c1 | active: 20.6 µM |  |
| Cc1cccc(-c2nc(CS(=O)CC(=O)NCCc3ccc(Cl)cc3)c(C)o2)c1 (stereo unspecified) | inactive |  |
| O=C(NCc1cccnc1)c1ccc(COc2ccc(Cl)cc2Cl)o1 | inconclusive [inhibitor, single point] |  |
| O=C(O)C1=C[C@H](c2ccc(C(F)(F)F)cc2)C[C@H](OCCCCO)O1 | inactive |  |
| COc1ccc(CCNC(=O)c2cc3c(=O)n4cccc(C)c4nc3s2)cc1OC | inconclusive [inhibitor, single point] |  |
| Nc1c(Cl)cc(C2=NCCn3c2c2ccc([N+](=O)[O-])cc2[n+]3[O-])cc1Cl | active: 5.8 µM |  |
| COC(C/C=C/C(=O)COCc1ccccc1)OC | inconclusive [inhibitor, single point] |  |
| CCN(CC)CC(C)(C)C(=O)/C=C/c1ccc(/C=C/C(=O)C(C)(C)CN(CC)CC)cc1 | active: 0.411 µM |  |
| COc1ccccc1OCCC(=O)OCC(=O)c1[nH]c(C)c(C(C)=O)c1C | inconclusive [inhibitor, single point] |  |
| COc1ccccc1NS(=O)(=O)c1cc(NC(=O)c2ccc(NC(C)=O)cc2)ccc1N1CCOCC1 | active: 5.8 µM |  |
| CCc1nc(SCc2cc(=O)c3cc(F)ccc3[nH]2)n[nH]1 | inconclusive [inhibitor, single point] |  |
| O=C(NOCc1cscn1)Nc1ccccc1 | inactive |  |
